Assay results published in PubChem BioAssay AID1030 (National Center for Advancing Translational Sciences (NCATS), 2008).
Hit rate of the full screen: of about 220,000 compounds, about 16,000 (7.3%) were called active. Inconclusive means that the source gave no clear call. Such entries were picked first, then a sample of the others. The call rests on the fitted dose curve; in most records, active means well fitted inhibition curve with a large enough effect (not every such curve was filed as active); inconclusive means small, poorly fitted or top-dose-only effect, or another doubt; inactive means no such curve, though single readings can be large or run the other way. Potencies of inconclusive entries are left out as doubtful fits.

molecular target: Aldehyde dehydrogenase 1A1 (Homo sapiens) (UniProt P00352); test: qHTS Assay for Inhibitors of Aldehyde Dehydrogenase 1 (ALDH1A1); conditions: Purified ALDH1A1, NADH fluorescence, propionaldehyde substrate; series mostly up to 75.3 µM; activity, negative = inhibition: at the top concentration;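 on activity, negative = inhibition: plate controls were no enzyme wells and a reference inhibitor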
Sequence of UniProt P00352 (P00352 whole entry, looked up): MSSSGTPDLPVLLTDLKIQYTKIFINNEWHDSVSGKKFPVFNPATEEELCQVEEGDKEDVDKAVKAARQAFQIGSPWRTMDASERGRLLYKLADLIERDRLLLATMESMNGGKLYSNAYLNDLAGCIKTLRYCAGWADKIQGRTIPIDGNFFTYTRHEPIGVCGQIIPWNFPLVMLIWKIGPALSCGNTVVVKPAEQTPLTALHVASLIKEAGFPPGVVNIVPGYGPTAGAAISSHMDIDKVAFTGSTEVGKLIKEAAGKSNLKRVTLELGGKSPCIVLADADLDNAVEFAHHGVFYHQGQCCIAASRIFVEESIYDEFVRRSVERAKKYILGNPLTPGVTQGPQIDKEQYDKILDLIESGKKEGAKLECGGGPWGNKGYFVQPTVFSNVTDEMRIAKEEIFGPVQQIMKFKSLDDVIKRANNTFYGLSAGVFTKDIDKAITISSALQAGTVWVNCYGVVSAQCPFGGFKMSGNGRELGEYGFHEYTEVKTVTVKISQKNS
Potency means the concentration at half of the fitted maximal effect; tags describe the fitted curve by direction and shape.

Question: Which “activity, negative = inhibition” value does the source give for `Cc1noc(C)c1C(=O)N1CCC2(CCCN(C(=O)Nc3cccc(F)c3)C2)CC1` here?
Answer: The value was inactive: 3.41%.

Question: Which Potency does the source give for `COc1cccc2cc(C(=O)NCc3ccco3)c(=Nc3ccc(C(=O)O)cc3)oc12` here?
Answer: Its Potency is active: 15.8 µM.

Question: Which “activity, negative = inhibition” value does the source give for `COc1ccc(C(=O)O)cc1Nc1cc(C)nc2ncnn12` here?
Answer: Its value is inactive: -3.81%.

Question: `O=C1/C(=C\c2ccc(-c3ccccc3Cl)o2)SC(=S)N1CC1CCCO1` (stereo unspecified) was tested. Which Potency did it give?
Answer: The Potency was active: 1.41 µM.

Question: With `COc1ccc(-n2c(-c3ccc(Br)cc3)c[n+]3c2CCC3)cc1` as the compound, how does the “activity, negative = inhibition” value read?
Answer: The value was inactive: 8.97%.

Question: Which Potency does the source give for `O=C(CN1C(=O)C2CCCN2c2ncc(Cl)cc21)NCc1ccc2c(c1)OCO2` (stereo unspecified) here?
Answer: The Potency was inconclusive [inhibitor, single point].

Question: `Cc1cc(C(=O)Nc2ccc(N3CCCC3)c(Cl)c2)ccc1[N+](=O)[O-]` was tested. Which Potency did it give?
Answer: Its Potency is active: 20 µM.

Question: With `Cc1ccsc1C(=O)OCC(=O)c1cc(C)n(CC2CCCO2)c1C` (stereo unspecified) as the compound, how does the Potency read?
Answer: Its Potency is inconclusive [inhibitor, single point].

Question: For `Cc1cc(C)n(Cc2ccc(C(=O)O)cc2)n1`, which “activity, negative = inhibition” value is on record?
Answer: Its value is inactive: 9.9%.

Question: How did the Potency turn out when `CC1(C)CC(=O)c2c(nc3ccccc3c2N)C1` was run?
Answer: Its Potency is inconclusive [inhibitor, partial curve].

Question: `Cc1c(NS(=O)(=O)c2ccc(N3CCCCC3)c([N+](=O)[O-])c2)c(=O)n(-c2ccccc2)n1C` was tested. Which “activity, negative = inhibition” value did it give?
Answer: Its value is inactive: -3.07%.

Question: With `Cc1ccccc1-n1c([C@@H]2C[C@H]2c2ccccc2)n[nH]c1=S` as the compound, how does the Potency read?
Answer: Its Potency is inconclusive [inhibitor, partial curve].

Question: How did the Potency turn out when `CC(=O)c1ccc(N2CCN(Cc3nc(Cc4ccccc4)no3)CC2)cc1` was run?
Answer: Its Potency is active: 17.8 µM.

Question: `CCc1nnc(NC(=O)c2cnccn2)s1` was tested. Which Potency did it give?
Answer: Its Potency is inconclusive [inhibitor, partial curve].

Question: `CC(=O)Nc1ccc(S(=O)(=O)Oc2ccc(/C=C3\SC(N)=NC3=O)cc2)cc1` was tested. Which “activity, negative = inhibition” value did it give?
Answer: Its value is inactive: -6.79%.

Question: For `Cc1cccc(OCCCn2c(=O)oc3ccc(C)cc32)c1`, which “activity, negative = inhibition” value is on record?
Answer: The value was inactive: -5.33%.

Question: How did the Potency turn out when `CCCCCCCC/C=C\CCCCCCCC(=O)OC[C@H](CO)OC(C)=O` was run?
Answer: The Potency was “inactive”.

Question: How did the “activity, negative = inhibition” value turn out when `CS(=O)(=O)N1CCC2(CCN(Cc3ccc(C#N)cc3)CC2)CC1` was run?
Answer: Its value is inactive: 0.75%.

Question: How did the Potency turn out when `NNC(=O)c1ccc(N2CCCCCC2)c([N+](=O)[O-])c1` was run?
Answer: The Potency was active: 1.58 µM.

Question: With `CSc1cccc(NS(=O)(=O)c2cccc3nsnc23)c1` as the compound, how does the Potency read?
Answer: Its Potency is inconclusive [inhibitor, single point].

Question: With `CCOc1ccc(N2C(=O)CC(N3CCN(C(=O)c4ccco4)CC3)C2=O)cc1` (stereo unspecified) as the compound, how does the Potency read?
Answer: Its Potency is active: 8.91 µM.

Question: With `Cc1cc2cc(CN(CCCN3CCOCC3)C(=O)NC3CCCCC3)c(=O)[nH]c2cc1C` as the compound, how does the Potency read?
Answer: Its Potency is inconclusive [inhibitor, single point].

Question: With `Cc1c(NS(=O)(=O)c2ccc3[nH]c(=O)[nH]c3c2)c(=O)n(-c2ccccc2)n1C` as the compound, how does the “activity, negative = inhibition” value read?
Answer: Its value is inactive: -6.97%.

Question: For `O=C(CSc1nncn1-c1ccccc1)NCc1cccs1`, which “activity, negative = inhibition” value is on record?
Answer: The value was inactive: 1.45%.

Question: `Cc1c2c(n3c(nc4ccccc43)c1C#N)N(c1ccccc1)CC2` was tested. Which Potency did it give?
Answer: Its Potency is inconclusive [inhibitor, partial curve].

Question: With `O=C1OC(c2ccc(Br)cc2)=N/C1=C\c1ccco1` as the compound, how does the Potency read?
Answer: Its Potency is inconclusive [inhibitor, single point].

Question: How did the Potency turn out when `COC(=O)CSc1nnc(-c2ccco2)n1Cc1ccco1` was run?
Answer: The Potency was active: 14.1 µM.

Question: With `CCC(C(=O)NC1CCCC1)N(Cc1cccs1)C(=O)Cn1nnc(-c2ccc(OC)c(OC)c2)n1` (stereo unspecified) as the compound, how does the Potency read?
Answer: The Potency was inconclusive [inhibitor, single point].

Question: `CC(=C1C(=O)c2ccccc2C1=O)N1CCC(C(N)=O)(N2CCCCC2)CC1` was tested. Which Potency did it give?
Answer: Its Potency is active: 20 µM.

Question: How did the Potency turn out when `CN(C)c1ncc(C(=O)O)cn1` was run?
Answer: Its Potency is inconclusive [inhibitor, partial curve].

Question: With `O=C(O)/C=C/C(=O)Nc1ccccc1-c1ccccc1NC(=O)/C=C/C(=O)O` as the compound, how does the “activity, negative = inhibition” value read?
Answer: The value was inactive: -6.95%.

Question: With `O=C(Nc1ccc(N2CCOCC2)cc1)c1cn2ccccc2n1` as the compound, how does the “activity, negative = inhibition” value read?
Answer: The value was inactive: 2.48%.

Question: With `COC(=O)c1sccc1NC(=O)Nc1cccc(F)c1` as the compound, how does the “activity, negative = inhibition” value read?
Answer: The value was inactive: 0.492%.

Question: For `CCN(CC)CCCN1C=C2C(=O)C(C)(OC(=O)CCC(=O)OC)C(=O)C(Br)=C2C=C1c1ccc(OC)cc1` (stereo unspecified), which Potency is on record?
Answer: The Potency was inconclusive [inhibitor, partial curve].

Question: Which Potency does the source give for `Cc1[nH]n(-c2ncc(-c3ccc(Cl)cc3)s2)c(=O)c1C(c1ccc(Cl)cc1)C(C#N)C#N` (stereo unspecified) here?
Answer: The Potency was inconclusive [inhibitor, single point].

Question: How did the Potency turn out when `Cc1cc(C)nc(NC(=S)Nc2ccc(Br)cc2Cl)c1` was run?
Answer: Its Potency is inconclusive [inhibitor, single point].

Question: Which “activity, negative = inhibition” value does the source give for `Clc1cccc(Nc2nc(-c3ccncc3)cs2)c1` here?
Answer: The value was inactive: -2.11%.

Question: With `CCCN(CCC)C(=S)Nc1cc(C(=O)OC)ccc1C(=O)OC` as the compound, how does the Potency read?
Answer: The Potency was inconclusive [inhibitor, single point].

Question: Which Potency does the source give for `Cc1nc(N2CCCCC2)c2c(C)c(C(=O)Nc3cccc(C(F)(F)F)c3)sc2n1` here?
Answer: Its Potency is inconclusive [inhibitor, partial curve].

Question: With `O=C(Nc1ccccc1)c1ccc(S(=O)(=O)N(CCO)CCO)cc1` as the compound, how does the “activity, negative = inhibition” value read?
Answer: Its value is inactive: 3.22%.

Question: `CC(=O)c1ccc(OC(C)C)c(Cc2c(O)nc(N)[nH]c2=O)c1` was tested. Which Potency did it give?
Answer: The Potency was inconclusive [inhibitor, single point].

Question: With `COc1ccc(C(=O)c2c(C)c3ccccc3n2CC(O)CNC(C)C)cc1` (stereo unspecified) as the compound, how does the Potency read?
Answer: The Potency was inconclusive [inhibitor, partial curve].

Question: With `O=c1[nH]c(=O)n(-c2ccccc2)c2c1C(C(F)(F)F)(C(F)(F)F)N=C(C1CCCCC1)N2` as the compound, how does the Potency read?
Answer: The Potency was inconclusive [inhibitor, single point].

Question: For `CC(C)(C)c1ccc(C(=O)NCCC(=O)NCc2ccco2)cc1`, which Potency is on record?
Answer: Its Potency is inconclusive [inhibitor, single point].

Question: Which “activity, negative = inhibition” value does the source give for `Cn1cc([N+](=O)[O-])c(C(=O)N/N=C/c2ccc3c(c2)OCO3)n1` here?
Answer: Its value is inactive: -4.91%.

Question: `Cc1cc(O)ccc1N/C=C1\CCCC1=O` was tested. Which Potency did it give?
Answer: Its Potency is active: 12.6 µM.

Question: `CNc1cc(N2CCCC2)ccc1[N+](=O)[O-]` was tested. Which “activity, negative = inhibition” value did it give?
Answer: The value was inactive: 6.83%.

Question: `Cc1ccc(-c2nc(=S)c3c(n2Cc2ccco2)CCCC3)cc1` was tested. Which Potency did it give?
Answer: Its Potency is active: 12.6 µM.

Question: How did the “activity, negative = inhibition” value turn out when `CCNC(=O)Nc1cc2nc(C)n(Cc3ccc(Br)cc3)c2nc1C` was run?
Answer: Its value is inactive: -3.08%.

Question: For `O=C(O)Cn1cc(C(=S)N2CCCCC2)c2ccccc21`, which Potency is on record?
Answer: The Potency was active: 10 µM.

Question: With `O=C(Nc1nccs1)c1ccc(-c2ccc(Cl)cc2Cl)o1` as the compound, how does the Potency read?
Answer: Its Potency is inconclusive [inhibitor, single point].
